The values below come from PMC6149971, “In Vivo and In Vitro Activities and ADME-Tox Profile of a Quinolizidine-Modified 4-Aminoquinoline: A Potent Anti-P. falciparum and Anti-P. vivax Blood-Stage Antimalarial” (Molecules : A Journal of Synthetic Chemistry and Natural …, 2017).

A value given as a limit tells only on which side of the number the result lay.

A short description of data set [1]: Maximum tolerated dose in CD1 mice.
Data set [2] has as its system P. falciparum FCR1 (CQ-R). Nature of the data set: In vitro chemosensitivity assay (pLDH), FCR1 strain. In kind it is cell-based. To be noted: Plasmodium falciparum; 72 h incubation, pLDH method, mean of 3 experiments.
In data set [3] the target is CYP2D6 (Homo sapiens, UniProt P10635). Nature of the data set: in vitro.
The subject of data set [4] is P. yoelii. Nature of the data set: Standard four-day suppressive test, P. yoelii. In kind it is in vivo. To be noted: CD1 mice, oral, once a day for four days, parasitaemia on day 4. How it is done: Groups of five CD1 mice were inoculated i.v. with 4 × 10^6 infected erythrocytes/mice. The compound, dissolved in standard suspending formula (SSV) (0.5% sodium carboxymethylcellulose, 0.5% benzyl alcohol, 0.4% Tween 80, 0.9% NaCl), was administered orally, once a day for a period of four days, starting two hours post-infection. […] Parasitaemia was determined by microscopic examination of Giemsa-stained blood films taken on day four, processed using MICROSOFT® EXCEL spreadsheets (Microsoft Corp., Redmond, WA, USA), and expressed as percentages of inhibition from the arithmetic mean parasitaemias of each group in relation to the untreated group. ED50 and ED90 values were calculated by GraphPad Prism 6 (GraphPad Software Inc, La Jolla, CA, USA).

The subject of data set [5] is P. falciparum W-2 (CQ-R). Nature of the data set: Combination with dihydroartemisinin (isobologram), W-2. In kind it is cell-based. To be noted: additive activity. On the procedure: Figure 2 Isobologram analysis of the antimalarial activity of (−)-AM1 in combination with dihydroartemisinin (DHA) against D10 chloroquine-sensitive (CQ-S) (A) or W2 chloroquine-resistant (CQ-R) (B) P. falciparum strains. […]. DHA fractional IC50 values were calculated by dividing the IC50 of DHA combined with (−)-AM1 or CQ, respectively, by the IC50 of DHA alone, and plotted on the horizontal axis. The corresponding fractional (−)-AM1 or CQ IC50 values were calculated by dividing each fixed concentration by the IC50 of the (−)-AM1 or CQ alone, and plotted on the vertical axis. An isobologram close to the diagonal indicates an additive effect.
The antimalarial activity of (−)-AM1 was assayed in combination with dihydroartemisinin (DHA) against W-2 (CQ-R) or D10 (CQ-S) strains of P. falciparum by potentiation tests as previously described. CQ was used as a control. Isobolograms were constructed by plotting a pair of fractional IC50 values for each combination of (−)-AM1 or CQ with DHA [40].
An isobologram close to the diagonal indicates an additive effect.

The target of data set [6] is T1, hERG (Homo sapiens, UniProt Q12809).
T1 construct: expressed in transfected cells
Nature of the data set: hERG [3H]-astemizole radioligand binding assay. How it is done: [^3H]-astemizole (PerkinElmer ITALIA Spa, Milan, Italy) radioligand binding assays were performed in HEK293 cells membranes stably transfected with the hERG (U04270); non-specific binding was evaluated in the presence of an excess of 10 µM cold astemizole. Experiments were performed at 22 °C for 60 min in triplicate and compounds tested in a range from 0.03 µM to 30 µM. Two separate experiments were performed and data analyzed with non-linear fitting using a four-parameter logistic.
Background: The hERG channel carries a current that helps repolarise heart muscle cells.

T1 sequence (Q12809 whole entry): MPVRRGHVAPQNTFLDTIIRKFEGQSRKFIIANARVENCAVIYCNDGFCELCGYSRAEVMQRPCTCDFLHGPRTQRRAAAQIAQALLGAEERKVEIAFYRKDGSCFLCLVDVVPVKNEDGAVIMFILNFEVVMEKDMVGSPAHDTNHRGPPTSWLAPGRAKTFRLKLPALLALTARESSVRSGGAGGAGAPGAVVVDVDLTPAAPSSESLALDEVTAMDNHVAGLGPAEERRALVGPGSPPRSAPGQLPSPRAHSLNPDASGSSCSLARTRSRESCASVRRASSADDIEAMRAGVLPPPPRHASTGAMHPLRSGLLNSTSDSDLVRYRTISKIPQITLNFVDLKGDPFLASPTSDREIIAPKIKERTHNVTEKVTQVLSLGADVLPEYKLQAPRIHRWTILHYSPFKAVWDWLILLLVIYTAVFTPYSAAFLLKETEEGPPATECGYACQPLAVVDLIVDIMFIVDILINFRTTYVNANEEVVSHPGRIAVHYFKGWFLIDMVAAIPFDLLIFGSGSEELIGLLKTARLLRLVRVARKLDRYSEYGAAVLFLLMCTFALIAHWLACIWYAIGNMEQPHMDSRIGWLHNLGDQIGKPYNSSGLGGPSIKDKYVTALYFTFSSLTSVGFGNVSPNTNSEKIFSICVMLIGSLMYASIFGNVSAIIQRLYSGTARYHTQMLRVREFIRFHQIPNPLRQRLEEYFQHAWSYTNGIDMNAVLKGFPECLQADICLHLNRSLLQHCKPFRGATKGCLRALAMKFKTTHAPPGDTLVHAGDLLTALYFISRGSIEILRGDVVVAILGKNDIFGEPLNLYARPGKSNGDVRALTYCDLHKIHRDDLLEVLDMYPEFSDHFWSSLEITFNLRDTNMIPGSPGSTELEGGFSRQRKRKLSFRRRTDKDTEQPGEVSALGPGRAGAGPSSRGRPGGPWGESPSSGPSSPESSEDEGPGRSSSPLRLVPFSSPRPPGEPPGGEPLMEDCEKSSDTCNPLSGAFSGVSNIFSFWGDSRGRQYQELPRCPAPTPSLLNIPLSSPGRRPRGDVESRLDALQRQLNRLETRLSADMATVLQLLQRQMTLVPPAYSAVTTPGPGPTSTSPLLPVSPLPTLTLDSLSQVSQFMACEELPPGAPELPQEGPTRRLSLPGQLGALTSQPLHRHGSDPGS
Chain of UniProt P10635 (P10635 whole entry): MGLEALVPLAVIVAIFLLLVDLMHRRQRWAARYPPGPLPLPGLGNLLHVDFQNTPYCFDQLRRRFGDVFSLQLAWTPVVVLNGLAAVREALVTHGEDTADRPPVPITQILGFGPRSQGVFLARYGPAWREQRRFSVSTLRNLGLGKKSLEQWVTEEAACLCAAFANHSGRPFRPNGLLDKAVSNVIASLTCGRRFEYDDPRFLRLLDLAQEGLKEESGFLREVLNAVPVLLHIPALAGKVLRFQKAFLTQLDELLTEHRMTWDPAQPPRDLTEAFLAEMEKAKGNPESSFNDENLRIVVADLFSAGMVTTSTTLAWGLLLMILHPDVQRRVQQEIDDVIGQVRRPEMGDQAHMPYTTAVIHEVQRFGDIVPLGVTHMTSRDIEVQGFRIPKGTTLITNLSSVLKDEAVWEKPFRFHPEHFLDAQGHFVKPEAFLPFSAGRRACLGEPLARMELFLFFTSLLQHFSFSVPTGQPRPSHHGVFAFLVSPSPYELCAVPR

One may read the MTD as the largest dose that counted as tolerated. Low values mean poorer tolerability, high ones better tolerability. What is called IC50 is the point on the concentration scale where inhibition reaches its midpoint. The inhibition is the percentage by which the read-out fell short of the control. High values mean a strong effect, low ones a weak effect. A word on the ED50: it is the dose at which the effect has come halfway, by size or by number of responders. A word on the Ki: it is a measure of affinity in units of concentration, obtained from inhibition or displacement. `Clc1ccc2c(NC[C@@H]3CCCN4CCCC[C@H]34)ccnc2c1` [(−)-AM1, 7-chloro-N-(((1S,9aR)-octahydro-1H-quinolizin-1-yl)methyl)quinolin-4-amine]: the MTD in data set [1] (CD1, mouse, in vivo, ip) is over 100 mg/kg. Moreover, in data set [1] (CD1 mice, up to 100 mg/kg i.p.), the “toxic clinical signs or mortality” value is “No toxic clinical signs or mortality”. The molecule further showed an IC50 in data set [2] of 32.9 nM. Moreover, at 3 µM the inhibition in data set [3] was 74.4 ± 3.5%. In addition, the “P. yoelii ED90 (95% CI)” value in data set [4] is listed as 4.95 (3.08–7.94) mg/kg. In addition, the 50% effective dose (ED50) in data set [4] (Plasmodium yoelii, 96 h, read-out: P. yoelii ED50 (95% CI)) was determined as 1.55 mg/kg. Moreover, the “FIC in combination with DHA” value in data set [5] is under 2. Also, the Ki in data set [6] is 500 to 800 nM.
